Results as given in PubChem BioAssay AID1345083 (National Center for Advancing Translational Sciences (NCATS), 2018).
The whole screen tested about 94,000 compounds, of which about 6,200 (6.6%) were called active. Inconclusive means that the source gave no clear call. Such entries were picked first, then a sample of the others. Calls come from the whole dose curve; as a rule, active = well fitted inhibition curve with a large enough effect; inconclusive = small, poorly fitted or top-dose-only effect; inactive = flat fitted curve, though single readings scatter. Where the call is inconclusive, the potency comes from a doubtful curve fit.

assay: Cytotoxic Profiling in HEK 293 Cell Line of Diverse Libraries Using Quantitative High-Throughput Screening; details: HEK 293 viability, ATP luminescence (CellTiter-Glo), 48-72 h; activity change, negative = cytotoxicity: at 115 µM (top of the series) unless noted; series mostly up to 115 µM; note: nearly all actives have a fitted effect of over 60% in size
In short: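 Luminescence from cellular ATP, measured with CellTiter-Glo, indicates HEK 293 viability. Cells plated at 250 cells/well are treated with compound for 48 or 72 hr at 37 degree Celsius before reagent addition.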
% is set by controls: 0 for no effect and ±100 for the full control effect; potency is the fitted concentration of half-maximal effect; tags give direction and shape of the fitted curve.

**Q.** With COc1ccc(OC)c(NC(=O)Cn2c(N3CCC(C)CC3)nc(C)cc2=O)c1 as the compound, how does the Potency read?
**A.** Its Potency is inconclusive: 35.5 µM [inhibitor, partial curve].

**Q.** For O=C(CC1CCN(S(=O)(=O)c2ccc(F)cc2)C1)NCc1ccccc1 (stereo unspecified), which Potency is on record?
**A.** Its Potency is inconclusive: 79.4 µM [inhibitor, partial curve, poor fit].

**Q.** With COc1ccc2c(c1)nc1n2[C@@H](CNCc2ccccc2)COC1 as the compound, how does the Potency read?
**A.** The Potency was inconclusive: 100 µM [inhibitor, partial curve].

**Q.** For CN1CC(=O)N(C2CCCNCC2)Cc2c(NCC(C)(C)C)ncnc21 (stereo unspecified), which “outcome” value is on record?
**A.** The value was “inactive”.

**Q.** With CN(Cc1ccc(-c2ccccc2)cc1)C(=O)c1ccccc1F as the compound, how does the Potency read?
**A.** The Potency was active: 89.1 µM.

**Q.** For CN(C)[C@@H]1CO[C@H](CNC(=O)c2ccncc2)[C@H]1O, which “outcome” value is on record?
**A.** The value was “inactive [at 230 µM]”.

**Q.** With CC1=C[C@@H](CNC(=O)c2ccncc2)[C@H](C(C)C)C[C@H]1CC(=O)N1CCOCC1 as the compound, how does the “activity change, negative = cytotoxicity” value read?
**A.** The value was inactive: -11.2% [at 172 µM].

**Q.** Which Potency does the source give for O=C(NC1CC1)[C@@H]1C[C@H](Oc2ccccc2)CN1C(=O)CCCc1c[nH]c2ccccc12 here?
**A.** Its Potency is inconclusive: 44.7 µM [inhibitor, partial curve, poor fit].

**Q.** Which Potency does the source give for CC(C)CCN1CCc2nc(C3CC3)nc(-c3ccc(O)cc3)c2C1 here?
**A.** Its Potency is inconclusive: 100 µM [inhibitor, single point].

**Q.** With O=C(Nc1cccnc1)[C@@H]1C[C@@H](c2ccc(F)cc2)N([S+](=O)([O-])c2cccnc2)C1 as the compound, how does the Potency read?
**A.** Its Potency is inconclusive: 79.4 µM [inhibitor, partial curve].

**Q.** For CCOC(=O)C(Cc1ccc(Cl)c(N2CCN(C(=O)OC(C)(C)C)CC2)c1)OC (stereo unspecified), which Potency is on record?
**A.** Its Potency is inconclusive: 39.8 µM [inhibitor, partial curve].

**Q.** With COCC1CN(C)CC12CCN(Cc1sccc1C)CC2 (stereo unspecified) as the compound, how does the Potency read?
**A.** Its Potency is inconclusive: 89.1 µM [inhibitor, single point].

**Q.** Which Potency does the source give for C=CCNC(=O)CCc1c(C)nn(-c2ccc(F)cc2)c1Oc1ccccc1C here?
**A.** Its Potency is inconclusive: 89.1 µM [inhibitor, partial curve, poor fit].

**Q.** With O=S(=O)(Cc1ccccc1)NC[C@H]1COCc2nc3cccnc3n21 as the compound, how does the Potency read?
**A.** The Potency was inconclusive: 89.1 µM [inhibitor, partial curve].

**Q.** Which Potency does the source give for O=C(NC1CCN(c2ccnc3ccnn23)C1)c1ccc(C(F)(F)F)cc1 (stereo unspecified) here?
**A.** The Potency was inconclusive: 8.91 µM [inhibitor, full curve, poor fit].

**Q.** For COCC1CN(Cc2c(C)n[nH]c2C)CC12CCNCC2 (stereo unspecified), which Potency is on record?
**A.** Its Potency is inconclusive: 89.1 µM [inhibitor, single point].

**Q.** With Cn1nc(C(=O)N2CC[C@@](C)(O)[C@@H](O)C2)cc1-c1cccs1 as the compound, how does the “activity change, negative = cytotoxicity” value read?
**A.** Its value is inactive: -3.14%.

**Q.** Which “activity change, negative = cytotoxicity” value does the source give for COc1ccc(C(=O)N2CCCC(CO)CCNC(=O)CC2)cn1 (stereo unspecified) here?
**A.** The value was inactive: 4.74%.

**Q.** Which Potency does the source give for CC(C)CC(=O)N1CCOCC12CCN(CCCc1ccccc1)CC2 here?
**A.** Its Potency is inconclusive: 112 µM [inhibitor, partial curve, poor fit].

**Q.** Which Potency does the source give for CS(=O)(=O)N1CCC(F)(c2nc(-c3ccccc3)no2)CC1 here?
**A.** The Potency was inconclusive: 79.4 µM [inhibitor, partial curve, poor fit].

**Q.** For Cc1oc(C2CCN(C(=O)CCC(=O)n3nc(C)c4ccccc43)CC2)nc1C(=O)N1CCCC1, which Potency is on record?
**A.** The Potency was inconclusive: 56.2 µM [inhibitor, partial curve, poor fit].

**Q.** With COc1ccc(C(=O)N2CCCC2C(=O)N2CCC(c3nc4ccncc4[nH]3)C2)cc1 (stereo unspecified) as the compound, how does the “activity change, negative = cytotoxicity” value read?
**A.** Its value is inactive: -7.06%.

**Q.** Which “outcome” value does the source give for COCCCn1c(=O)c(C(=O)N2CCN(C(=O)c3ccc(F)cc3)CC2)nc2cccnc21 here?
**A.** Its value is “inactive”.

**Q.** Which Potency does the source give for O=C(NCc1ccc2c(c1)OCO2)C1CC(c2ccccc2)CN(C(=O)c2ccccc2F)C1 (stereo unspecified) here?
**A.** The Potency was inconclusive: 50.1 µM [inhibitor, partial curve, poor fit].

**Q.** With O=C(Cc1c(F)cccc1Cl)Nc1ccc2ncnc(N3CCCC3)c2c1 as the compound, how does the Potency read?
**A.** Its Potency is inconclusive: 50.1 µM [inhibitor, partial curve, poor fit].

**Q.** With O=C(NC1CCCN(c2ccc3nnc(-c4ccccc4)n3n2)C1)c1ccccc1 (stereo unspecified) as the compound, how does the Potency read?
**A.** The Potency was active: 35.5 µM.

**Q.** With CCCNC(=O)c1coc(COc2ccc3c(c2)C(c2ccc(F)cc2)N(C(=O)C(C)C)CC3)n1 (stereo unspecified) as the compound, how does the Potency read?
**A.** Its Potency is inconclusive: 14.1 µM [inhibitor, full curve, poor fit].

**Q.** Which Potency does the source give for COCCn1c(C)cc(C(=O)N2CCC[C@H](n3c(=O)n(C)c4cccnc43)C2)c1C here?
**A.** Its Potency is inconclusive: 89.1 µM [inhibitor, single point].

**Q.** For COc1ccc2n[nH]c(CN3CCC(C(C)N4CCCC4)CC3)c2c1 (stereo unspecified), which “activity change, negative = cytotoxicity” value is on record?
**A.** The value was inactive: -7.7%.

**Q.** For O=C(NCc1cccc(Cl)c1)c1ccc2oc(-c3ccccn3)nc2c1, which Potency is on record?
**A.** Its Potency is inconclusive: 50.1 µM [inhibitor, partial curve, poor fit].

**Q.** For CCN1c2cc(C(=O)Nc3ccc(Br)cc3)ccc2C(=O)N2CCCCCC21 (stereo unspecified), which Potency is on record?
**A.** The Potency was inconclusive: 28.2 µM [inhibitor, full curve, poor fit].

**Q.** For Cc1ccc(-c2cc(N3CCCN(C(=O)c4ccsc4)CC3)n[nH]2)cc1C, which Potency is on record?
**A.** The Potency was inconclusive: 50.1 µM [inhibitor, partial curve, poor fit].

**Q.** For CC(C)c1nc2c(c(-c3ccc(O)cc3)n1)CCN(C(=O)Cc1cccc(Cl)c1)CC2, which Potency is on record?
**A.** The Potency was inconclusive: 50.1 µM [inhibitor, partial curve, poor fit].

**Q.** Which Potency does the source give for COc1ccccc1Nc1ccnc(N2CCC(NC(=O)Cc3ccc(F)cc3)CC2)n1 here?
**A.** Its Potency is active: 44.7 µM.

**Q.** With CCOc1ccc(CC(=O)N2C[C@@H](N)C[C@H]2C(=O)NC(C)C)cc1 as the compound, how does the “activity change, negative = cytotoxicity” value read?
**A.** The value was inactive: -7.1%.

**Q.** Which Potency does the source give for COc1ccc(CC(=O)N2CC(=O)N(CCCc3ccccc3)CC(O)C2)cc1 (stereo unspecified) here?
**A.** Its Potency is inconclusive: 89.1 µM [inhibitor, single point].

**Q.** For Cc1ccc(CCNC(=O)c2nnn3c2COC(c2ccc(Cl)cc2)C3)cc1 (stereo unspecified), which “activity change, negative = cytotoxicity” value is on record?
**A.** Its value is inactive: 2.98%.

**Q.** Which Potency does the source give for COc1cccc(Nc2cc3c(cn2)NCCN(Cc2ccccc2)C3)c1 here?
**A.** Its Potency is active: 89.1 µM.

**Q.** Which Potency does the source give for CN(C)c1ncc2c(n1)C(C)(C(=O)Nc1ccncc1)CCC2 (stereo unspecified) here?
**A.** Its Potency is inconclusive: 100 µM [inhibitor, partial curve, poor fit].

**Q.** With Cc1cnc(C(=O)NCCc2ncc(C)n2C2CCC2)cn1 as the compound, how does the “activity change, negative = cytotoxicity” value read?
**A.** Its value is inactive: -8.95%.

**Q.** For CCOC(=O)C1CCCN(C(=O)Cc2ccc(N(Cc3ccccc3)C(=O)c3ccco3)cc2)C1 (stereo unspecified), which Potency is on record?
**A.** The Potency was inconclusive: 20 µM [inhibitor, partial curve, poor fit].
